Source: patent publication US10654915B2, “Antibodies useful in passive influenza immunization” (priority 2011, dated 2020)

Tested on: H3N2 (A/Perth/16/2009)
Assay: Inhibition of infection and plaque formation in MDCK cell monolayers with or without trypsin
Settings: FIG. 4B

B1: MAB579 (antibody, V domains shown)
VH: QVQLVQSGAEVKKPGASVKVSCKTSGYTFTAYTIHWVRQAPGQRLEWMGWINAGNGHTKYSQRFKGRVTITRDTSARTTYMELRSLTSEDTALYFCARGPETYYYDKTNWLNSHPDEYFQHWGHGTQVTVSS
VL: DIQMTQSPSTLSASVGDRVTITCRASQTINNYLAWYQQKPGKAPKLLIYKASSLESGVPSRFSGSGSGTEFTLTISSLQPDDFATYYCQEYNNDSPLTFGGGTKVEIK
modifications: CHAIN (1)...(132) MAB579 heavy chain sequence of variable domain; DOMAIN (31)...(35) CDR1; DOMAIN (50)...(67) CDR2; DOMAIN (99)...(121) CDR3; CHAIN (1)...(108) MAB579 light chain sequence of variable domain; DOMAIN (24)...(34) CDR1; DOMAIN (50)...(57) CDR2; DOMAIN (89)...(98) CDR3
  inhibition of infection in presence or absence of trypsin: inhibits infection in both the presence and absence of trypsin
